Measured values as given in PubChem BioAssay AID1671194 (National Center for Advancing Translational Sciences (NCATS), 2021).
The campaign covered roughly 140,000 compounds. About 240 (0.17%) were called active. The inconclusive results got no clear call from the source; some entries with a clear call stand among them for comparison. The call rests on the fitted dose curve; in most records, active means well fitted inhibition curve with a large enough effect; inconclusive means small, poorly fitted or top-dose-only effect; inactive means no such curve, though single readings can be large or run the other way. A potency beside an inconclusive call is a rough fit, not a confirmed value.

Experiment: Primary qHTS assay for inhibitors of alpha-synuclein gene (SNCA) expression; further: nearly all actives have a fitted effect of over 45% in size
Details: HEK-293 SNCA-luciferase knock-in, luminescence, 24 h; series mostly up to 57.2 µM
Potency means the concentration at half of the fitted maximal effect; tags describe the fitted curve by direction and shape.

| SMILES | Potency |
| --- | --- |
| CC(C)c1ccc(NC(=O)CCS(=O)(=O)c2cccc3nonc23)cc1 | inconclusive: 0.158 µM [inhibitor, partial curve, poor fit] |
| CCCN(C(=O)COc1cc(=O)n(CC)c2ccccc12)c1ccc(C(C)C)cc1 | inconclusive: 25.1 µM [inhibitor, single point] |
| COCCN(C)C[C@@H]1CN(C(=O)CC(F)(F)F)C[C@@H]1CO | inactive |
| C[C@@H](NC(=O)C1=C[C@@H](NC(=O)Cc2cccs2)[C@@H](O)[C@H](O)C1)C(N)=O | inactive |
| CCOc1ccccc1NC(=O)c1c(NCc2cccs2)sc2c1CCCCC2 | inconclusive: 39.8 µM [inhibitor, partial curve, poor fit] |
| CC(=O)Nc1ccc(NC(=O)c2cc3sccc3n2Cc2ccc(Cl)cc2)cc1 | inconclusive: 4.47 µM [inhibitor, partial curve, poor fit] |
| O=C(CCC1CCN(C(=O)c2ccccc2)CC1)NCc1cccc(C(F)(F)F)c1 | inconclusive: 10 µM [inhibitor, partial curve, poor fit] |
| Cc1cccc(C(=O)N2CCC3(CC2)c2[nH]c4ccccc4c2CCN3C)c1 | inconclusive: 39.8 µM [inhibitor, partial curve, poor fit] |
| CC1=C[C@@H](CNS(C)(=O)=O)[C@H](C(C)C)C[C@H]1Cc1nc2ccc(Cl)cc2[nH]1 | inconclusive: 28.2 µM [inhibitor, single point] |
| COCCN1CC2(CCCN(C(=O)NCCc3cccs3)C2)CCC1=O (stereo not drawn) | inconclusive: 6.31 µM [inhibitor, partial curve, poor fit] |
| Cc1noc(C)c1-c1cc2c(cc(C)n2CCN(C)C)c(-c2ccnn2C)n1 | inconclusive: 35.5 µM [inhibitor, single point] |
| CCN(CC)CCn1c(-c2ccccc2)csc1=Nc1ccccc1 | inconclusive: 39.8 µM [inhibitor, single point] |
| COc1ccc(-c2coc3cc(O)ccc3c2=O)cc1 | inconclusive: 30.4 µM [inhibitor, partial curve, poor fit] |
| COc1cccc(N2C(=O)NC(=NC3CCCCC3)C23CCN(C(=O)c2ccc(C)cc2)CC3)c1 | inactive |
| COc1ccccc1CN1C[C@@H](F)[C@@H](OCc2nc3ccccc3o2)C1 | inactive |
| COc1ccc2cc(C3CN(C(=O)c4cccn4C)CCO3)ccc2c1 (stereo not drawn) | inactive |
| CC(C)c1noc(CC2CCN(C(=O)c3ccc(C(C)(C)C)cc3)CC2)n1 | inactive |
| CC(C)OC(=O)c1c(NC(=O)COc2cccc(Br)c2)sc2c1CCCC2 | inconclusive: 7.08 µM [inhibitor, partial curve] |
| CCN1CC(CNC(=O)CC2c3ccccc3CCc3ccccc32)CC1=O (stereo not drawn) | inconclusive: 39.8 µM [inhibitor, single point] |
| COc1cccc(C(=O)NC2CCN(Cc3cccc(-c4cccs4)c3)CC2)c1 | inconclusive: 3.16 µM [inhibitor, full curve] |
| Cc1noc(C)c1-c1cc2c(cc(C)n2CCN(C)C)c(-c2cccnc2)n1 | inactive |
| COc1ccc(CCNC(=O)Cn2nc3n(c2=O)CCCC3)cc1OC | inactive |

| SMILES | Potency |
| --- | --- |
| CCCCCC(=O)N1CCC(O)(c2csc(CN3CCc4ccccc4C3)n2)CC1 | inconclusive: 35.5 µM [inhibitor, partial curve, poor fit] |
| O=C(CC(c1ccccc1)c1cn(Cc2ccccc2)c2ccc([N+](=O)[O-])cc12)N1CCOCC1 (stereo not drawn) | inconclusive: 15.8 µM [inhibitor, partial curve, poor fit] |
| CCCCN(C)CC(O)Cn1cc(/C=C/C(=O)c2ccc(C)cc2)c2ccccc21 (stereo not drawn) | inconclusive: 39.8 µM [inhibitor, single point] |
| COCc1ccc(C(=O)NCc2cc(C)cc3c(C)c(C)[nH]c23)o1 | inconclusive: 3.16 µM [inhibitor, full curve] |
| COc1ccccc1-c1ccc(C(=O)N2CCC(NC(=O)C3CC3)CC2)cc1 | inconclusive: 10 µM [inhibitor, partial curve, poor fit] |
| CCOc1ccc(CNC(=O)c2ccc3c(c2)nnn3C2CCCC2)cc1 | inconclusive: 7.08 µM [inhibitor, single point] |
| COc1cccc(CC(=O)NCc2nnc3c(-c4nc(C)no4)cccn23)c1 | inactive |
| COc1ccc(C(=O)N2CCC(c3n[nH]c(=O)n3-c3ccccc3)CC2)cc1F | inconclusive: 1.26 µM [inhibitor, full curve, poor fit] |
| CCOc1cccc(NC(=O)C2CC(=O)N(C)C(=Nc3ccc(F)cc3)S2)c1 (stereo not drawn) | inconclusive: 20 µM [inhibitor, single point] |
| COc1ccc(C(=O)N2CCCC(c3noc(COc4ccccc4)n3)C2)cc1OC (stereo not drawn) | inactive |
| CCOC(=O)C1(Cc2ccc(Cl)cc2)CCN(Cc2ccc(OC)cc2O)CC1 | inconclusive: 39.8 µM [inhibitor, single point] |
| CCOc1ccc(C(=O)N2CCCN(c3cc(-c4ccc(Cl)cc4)[nH]n3)CC2)cc1 | inactive |
| Cc1ccccc1-c1cc(-c2cn[nH]c2)c2cncn2c1 | inconclusive: 15.8 µM [inhibitor, full curve, poor fit] |
| CC(C)C[C@H](NC(=O)[C@H](Cc1ccccc1)NC(=O)c1cnccn1)B(O)O | active: 0.0482 µM |
| Cc1cnc(C2CCN(Cc3ccc(F)cc3F)C2)n1Cc1ccccc1 (stereo not drawn) | inactive |
| CC(=O)N1Cc2ccccc2CC2(CCN(CCc3ccccc3)C2)C1 (stereo not drawn) | inactive |
| CCOc1ccc2nc(NC(=O)c3ccccc3)sc2c1 | inactive |
| Cc1ccccc1C(=O)N1CCCC(C(=O)N2CCC(c3nc4ccncc4[nH]3)C2)C1 (stereo not drawn) | inactive |
| COCCNC(=O)c1ccc(-c2nc(CN3CCc4ccccc43)c(C)o2)cc1 | inconclusive: 10 µM [inhibitor, partial curve, poor fit] |
| CC1=C[C@@H](CNC(=O)Cn2cnnn2)[C@H](C(C)C)C[C@H]1Cc1nc2ccccc2n1C | inconclusive: 56.2 µM [inhibitor, single point] |
| CCc1nc(C)ccc1OCC(=O)N1CCCn2nc(C(C)O)cc2C1 (stereo not drawn) | inactive |
